The structures appear in SMILES notation. The campaign covered roughly 310,000 compounds. About 2,200 (0.71%) showed an effect of 50% or more. The effect is printed as a negative number. The list shows a part of the results.

human ether-à-go-go-related gene (hERG) potassium channel, sequence (Q12809 whole entry, looked up): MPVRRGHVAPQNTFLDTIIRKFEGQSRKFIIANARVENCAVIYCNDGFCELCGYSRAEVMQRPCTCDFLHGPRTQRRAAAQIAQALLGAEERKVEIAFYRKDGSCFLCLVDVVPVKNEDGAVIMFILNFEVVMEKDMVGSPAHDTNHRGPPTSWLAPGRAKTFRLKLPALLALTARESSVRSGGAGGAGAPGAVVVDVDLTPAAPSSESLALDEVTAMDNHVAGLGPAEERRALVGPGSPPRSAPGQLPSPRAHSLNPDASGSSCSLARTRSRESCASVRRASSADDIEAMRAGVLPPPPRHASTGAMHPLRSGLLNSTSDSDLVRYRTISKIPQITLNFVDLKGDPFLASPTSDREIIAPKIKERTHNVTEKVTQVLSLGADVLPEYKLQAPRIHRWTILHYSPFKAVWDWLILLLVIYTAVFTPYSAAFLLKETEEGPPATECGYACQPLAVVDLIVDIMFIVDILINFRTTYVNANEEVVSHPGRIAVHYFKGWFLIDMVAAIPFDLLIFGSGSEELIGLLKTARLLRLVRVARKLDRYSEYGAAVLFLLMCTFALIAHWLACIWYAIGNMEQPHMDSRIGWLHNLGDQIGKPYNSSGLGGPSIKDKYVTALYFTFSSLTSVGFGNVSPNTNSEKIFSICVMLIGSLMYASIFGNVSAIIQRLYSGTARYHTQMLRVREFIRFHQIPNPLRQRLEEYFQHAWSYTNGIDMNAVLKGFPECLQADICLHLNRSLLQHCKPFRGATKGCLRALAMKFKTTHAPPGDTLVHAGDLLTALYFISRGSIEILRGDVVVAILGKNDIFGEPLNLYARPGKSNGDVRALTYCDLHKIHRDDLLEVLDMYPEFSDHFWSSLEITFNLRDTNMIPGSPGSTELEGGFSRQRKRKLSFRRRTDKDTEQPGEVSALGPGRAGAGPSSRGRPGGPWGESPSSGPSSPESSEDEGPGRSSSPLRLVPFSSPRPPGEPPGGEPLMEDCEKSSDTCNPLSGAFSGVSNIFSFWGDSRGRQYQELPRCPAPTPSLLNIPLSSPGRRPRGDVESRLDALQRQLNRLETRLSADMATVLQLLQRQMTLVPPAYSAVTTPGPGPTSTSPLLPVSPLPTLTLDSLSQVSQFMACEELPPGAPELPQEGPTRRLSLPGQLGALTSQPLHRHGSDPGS

This test addresses human ether-à-go-go-related gene (hERG) potassium channel (human, UniProt Q12809). Put plainly: primary screen, population patch clamp on CHO cells stably expressing hERG.
In the case of `Cc1nnc(SCC(=O)N(C)c2ccccc2)n1Cc1ccccc1`, the “hERG current change (%, negative = inhibition) at 1uM” value is -1.15%. To `CCOC(=O)C1CCN(Cc2ccc(-c3ccccc3)cc2)CC1` belongs 8.54%; to `CCC1CN(C(=O)NCc2ccc(C)cc2)c2cc(Cl)ccc2O1` (centres unmarked), 11.5%; to `CCOC(=O)c1c(-c2cccc([N+](=O)[O-])c2)cn2ccccc12`, 12.3%. Next, `N/C(=N\OCc1ccccc1)c1nonc1N`: 13.2%. As for `COc1ccc(/C=N/NC(=O)c2c(Br)cnn2C)c2ccccc12`, the “hERG current change (%, negative = inhibition) at 1uM” value is 18.4%.

For `O=C(NCc1ccc2c(c1)OCO2)C1CCC(CNc2c(N3CCCCC3)c(=O)c2=O)CC1` (centres unmarked), the “hERG current change (%, negative = inhibition) at 1uM” value turned out to be 1.06%. To `COc1ccc(COC(=O)C2=C(C)NC(=O)NC2c2ccccc2)cc1` (centres unmarked) belongs 15.9%; to `Cc1nc2ccc(C(=O)OCc3nnc(-c4ccc(Br)cc4)o3)cc2nc1C`, 15.4%. Next, `Cc1cc(Oc2ccc(Cl)cc2)nc(-c2ccccn2)n1`: 15.7%.

Take `CCCOc1ccc(-c2csc3ncn(Cc4ccc(C(=O)O)cc4)c(=O)c23)cc1`: the “hERG current change (%, negative = inhibition) at 1uM” value turned out to be 10.2%. Next, `CC1CCCN(S(=O)(=O)c2ccc(S(=O)(=O)N3CCCC3)cc2)C1` (centres unmarked): 18.7%; `Cc1ccc2occ(/C=N/NC(=O)c3ccccc3O)c(=O)c2c1`: 12.7%. As for `O=c1cc(-c2ccc([N+](=O)[O-])cc2)c2ccc(O)cc2o1`, the “hERG current change (%, negative = inhibition) at 1uM” value turned out to be 0.138%. To `Cc1cc(NC(=O)c2cccc(S(=O)(=O)N3CCCC3)c2)no1` belongs 4.75%; to `CCCc1cc(C(=O)Nc2cccnc2Cl)no1`, 9.15%; to `O=C(Nc1ccccc1)C1=C(O)CC(c2ccoc2)CC1=Nc1ccccc1` (centres unmarked), 17.3%. To `O=C(O)CC/C(=N\NC(=O)CNC(=O)/C=C/c1ccccc1)c1ccccc1` belongs 12.8%; to `Cc1ccc(NNC(=O)c2ccno2)c(C)c1`, 11.1%.

As to `COC(=O)C(Cc1ccc(O)cc1)NC(=O)c1ccc2c(c1)OCCO2` (centres unmarked), the “hERG current change (%, negative = inhibition) at 1uM” value is listed as 15.2%. Next, `COc1ccc(C(=O)NC(=S)NCc2cccnc2)cc1Br`: 1.85%; `CCCCS(=O)(=O)c1sc2nc(C)cc(C)c2c1N`: 12.2%; `O=C(Nc1nc(-c2ccccc2)cs1)Nc1ccc(F)cc1F`: 6.19%.

As for `CC(=O)N1N=C(c2cccc([N+](=O)[O-])c2)OC1(C)c1cccs1` (centres unmarked), the “hERG current change (%, negative = inhibition) at 1uM” value came to 4.03%. To `Cc1c(NC(=O)Nc2cccs2)cccc1[N+](=O)[O-]` belongs -2.27%. To `Cc1cc(C)cc(NC(=O)Cn2cc3c(n2)CCCCC3)c1` belongs 4.91%; to `Cc1ccc(N(C(=O)CCC(=O)Nc2cc(C)on2)C(C(=O)NC2CCCC2)c2cccs2)cc1` (centres unmarked), 0.152%. For `CCOC(=O)C1CCN(C(=O)COc2cccc3ccccc23)CC1`, the “hERG current change (%, negative = inhibition) at 1uM” value stood at 4.56%. Next, `O=C1CCC(=O)N1c1cccc(OS(=O)(=O)c2ccccc2)c1`: 4.44%. To `COc1cc(/C=C2/C(=N)N3N=C(CC(=O)N4CCOCC4)SC3=NC2=O)ccc1OCc1ccc(F)cc1` belongs 19.9%; to `CCS(=O)(=O)N1Cc2ccccc2CC1C(=O)Nc1nnc(SCc2c(Cl)cccc2Cl)s1` (centres unmarked), 17.9%.

As for `COc1ccc(NC(=O)c2ccccc2-c2ccc(C(F)(F)F)cc2)cc1S(=O)(=O)N1CCOCC1`, the “hERG current change (%, negative = inhibition) at 1uM” value came out at 8.67%. As to `CCOC(=O)CS(=O)(=O)c1nc(-c2ccc(F)cc2)cc(C(F)(F)F)n1`, the “hERG current change (%, negative = inhibition) at 1uM” value was 3.82%. Next, `c1ccc(OCc2nc3ccccc3[nH]2)cc1`: 12%; `NNC(=O)CN1C(=O)Nc2ccc(Cl)cc2C1c1ccccc1` (centres unmarked): 13.3%; `O=C(Cc1cccc(C(F)(F)F)c1)NCC(c1ccco1)N1CCCCC1` (centres unmarked): 9.69%. Next, `O=C(NCc1ccccc1Cl)C1CCN(C(=O)c2sccc2-n2cccc2)CC1`: 9.59%; `Cc1ccccc1C1NC(c2ccccc2C)C([N+](=O)[O-])C(C)(C)C1[N+](=O)[O-]` (centres unmarked): 5.37%. Regarding `S=c1[nH]nc(-c2ccccn2)n1/N=C/c1cccc2ccccc12`, the “hERG current change (%, negative = inhibition) at 1uM” value worked out at 9.16%. As for `CCOC(=O)N1CCN(CC(=O)c2ccc3c(c2)CCN3)CC1`, the “hERG current change (%, negative = inhibition) at 1uM” value is reported as -5.99%. Next, `Nc1ccc2nc(-c3cccc(-c4nc5ccc(N)cc5[nH]4)n3)[nH]c2c1`: 15.2%; `CC(C)(O)C#Cc1ccc(CN2CCN(Cc3ccsc3)C(CCO)C2)s1` (centres unmarked): 3.1%.

Turning to `COCCNc1nc2c(c(=O)[nH]c(=O)n2C)n1CCCc1ccccc1`, the “hERG current change (%, negative = inhibition) at 1uM” value was found to be 17.1%.

Turning to `O=C(N/N=C/c1ccc(Br)cc1)c1ccc(F)cc1`, the “hERG current change (%, negative = inhibition) at 1uM” value was determined as 9.76%.

(Values after article PMC4336329 (PLoS ONE, 2015).)
